# Results from paper PMC6919601, “Identification of Plasmodium dipeptidyl aminopeptidase allosteric inhibitors by high throughput screening” (PLoS ONE, 2019).
# The whole screen tested about 110,000 compounds, of which about 230 (0.21%) showed an effect of 50% or more. This is one part of the list.
# Biological target: DPAP1 (Plasmodium falciparum, UniProt Q8IIJ9)
# Assay: primary screen, percent inhibition; read by cleavage of a fluorogenic dipeptide substrate; higher = more effect of the substance
# Design: species or system P. falciparum D10 trophozoite lysates; single well
# 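Note: 30 min substrate incubation versus DMSO and 10 µM JCP410 controls.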
# Chain of DPAP1 (Q8IIJ9 whole entry, looked up): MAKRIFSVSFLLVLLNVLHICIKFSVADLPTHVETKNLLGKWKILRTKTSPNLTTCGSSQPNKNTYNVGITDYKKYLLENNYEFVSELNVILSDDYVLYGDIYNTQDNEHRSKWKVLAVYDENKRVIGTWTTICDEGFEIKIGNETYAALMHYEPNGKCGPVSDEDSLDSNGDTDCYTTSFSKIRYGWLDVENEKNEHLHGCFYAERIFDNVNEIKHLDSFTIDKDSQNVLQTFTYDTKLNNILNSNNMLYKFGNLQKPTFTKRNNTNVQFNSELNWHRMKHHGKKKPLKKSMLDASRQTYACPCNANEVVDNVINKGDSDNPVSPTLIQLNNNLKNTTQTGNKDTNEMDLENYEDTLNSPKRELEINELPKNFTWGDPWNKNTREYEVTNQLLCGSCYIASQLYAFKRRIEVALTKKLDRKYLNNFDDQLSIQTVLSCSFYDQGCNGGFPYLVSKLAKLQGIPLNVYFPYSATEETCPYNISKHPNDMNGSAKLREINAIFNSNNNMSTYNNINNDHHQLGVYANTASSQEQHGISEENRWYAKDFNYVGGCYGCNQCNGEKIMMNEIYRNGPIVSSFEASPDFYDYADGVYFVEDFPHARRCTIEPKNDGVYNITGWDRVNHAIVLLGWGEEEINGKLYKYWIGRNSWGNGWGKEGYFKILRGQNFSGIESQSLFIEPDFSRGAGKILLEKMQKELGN
row,Structure (SMILES),% Inhibition @ 10 uM [%]
1,COc1cc(OC)c(C2NC(=O)C(C)S2)c(OC)c1 (stereo not drawn),-0.239
2,Cc1cc(=O)n(C(C)(C)C)c(=O)n1Cc1ccccc1,3.06
3,Cc1ccc2cc(CCN3C(=O)c4ccccc4C3=O)c(O)nc2c1,-4.81
4,Cc1ccc(-c2c(N3CC(=O)N(CCc4ccccc4)C(=O)C3)c(=O)c2=O)cc1,-1.69
5,CCCC[C@H](NC(=O)C(CCS(=O)(=O)c1ccccc1)C(=O)NCc1ccccc1)C(=O)c1nc2ccccc2o1 (stereo partly drawn),4.15
6,CC1=C(c2ccc(C)cc2)S(=O)(=O)N=C1NCCCOC(C)C,3.87
7,CC1=C(C(=O)Nc2ccccc2C)C(c2ccc(C)o2)n2c(s/c(=C/c3ccoc3)c2=O)=N1 (stereo not drawn),-4.82
8,CCOc1cc2c(cc1/C=C1/S/C(=N\c3ccc(N4CCOCC4)cc3)N(C)C1=O)OCO2,5.42
9,CCCCOc1nc2ccccc2nc1NS(=O)(=O)c1ccc(N)cc1,-5.5
10,Clc1nc(-c2ccccc2)c2c(n1)-c1ccccc1CC2,1.57
11,COc1ccc(NC(=O)c2cccc(COc3ccc(Cl)cc3)c2)cn1,2.1
12,CN(CCNC(=O)Cn1nc(-c2ccc(Cl)cc2)ccc1=O)Cc1ccccc1,1.62
13,CCCn1nnc2sc(-c3ccccc3)cc2c1=O,2.41
14,CC(NC(=O)c1c(F)cccc1F)c1nc2ccccc2[nH]1 (stereo not drawn),-1.29
15,CC(C)NC(=O)/C=C/C(=O)O,-0.256
16,CC(C)c1ccc(C(=O)N2CCN(Cc3ccc4c(c3)OCO4)CC2)cc1,-0.95
17,C#CCOc1ccc(/C=C2\SC(=O)N(CC=C)C2=O)cc1,3.8
18,Cc1nc2c(c(C)nn2C(C)(C)C)c(C)c1CCC(=O)NCc1ccccn1,-2.45
19,N#CCNC(=O)C(CC(=O)N1CCOCC1)CS(=O)(=O)Cc1ccccc1C(F)(F)F (stereo not drawn),1.35
20,O=C(O)CSc1nnnn1-c1ccccc1,-8.11
21,O=C(NCCc1cccc(Cl)c1)NC1CCCCC1,-4.7
22,O=C(Cc1c(F)cccc1Cl)Nc1ccccn1,0.163
23,O=C(Nc1nc2c(Cl)cccc2s1)c1cccnc1Cl,-2.87
24,CC(NC(=O)C1CC=CCC1C(=O)O)C12CC3CC(CC(C3)C1)C2 (stereo not drawn),-0.999
25,CN(C)CC#CC(O)(c1ccccc1)c1ccccc1,-0.424
26,Cc1ccc2nc3c(cc(C#N)c(=N)n3CCc3ccccc3)c(=O)n2c1,-1.47

row,Structure (SMILES),% Inhibition @ 10 uM [%]
1,C=CCc1cc(/C=C2/C(=N)N3C(c4ccccc4)=CSC3=NC2=O)cc(OC)c1O,-5.87
2,CCOC(=O)c1c(NC(=O)c2cc(-c3ccc(F)cc3)on2)sc2c1CCCC2,-1.96
3,Cc1noc(C(=O)NC(C)c2ccccc2)c1Cl (stereo not drawn),-5.25
4,CCc1ccc(CNC(=O)c2cnc(SC)nc2C)cc1,3.54
5,N#CCNC(=O)C(CSCc1ccccc1)NC(=O)c1cccc(NC(=O)N2CCN(Cc3ccccc3)CC2)c1 (stereo not drawn),-6.98
6,O=C(NCc1cccc(CNC(=O)c2cnccn2)c1)c1cnccn1,-5.1
7,Cc1oc(-c2ccc(Cl)cc2)nc1CSCC(=O)NC1CCN(Cc2ccccc2)CC1,-2.72
8,Cc1cccc(OCc2nc(C#N)c(NCc3ccc(F)cc3)o2)c1,0.343
9,O=C1CN2CSCC2C(=O)N1Cc1ccccc1 (stereo not drawn),-2.15
10,CCCc1ccc(C(=O)N[C@@H](CC(C)C)C(=O)NCC#N)cc1,-3.04
11,Cc1cccc(NC(=O)CCCOc2ccccc2C)c1,-1.11
12,O=C(CCCN1C(=O)c2ccccc2Sc2ncccc21)NCCc1cccs1,-2.39
13,Cc1cc(C)n(CCc2nc3c4ccccc4nc(O)n3n2)n1,1.5
14,Cn1c(=N)n(CCCOc2ccccc2)c2ccccc21,-3.29
15,COc1cc(C(=O)NCc2nc3ccccc3n2C(C)C)cc(OC)c1OC,-5.67
16,Cc1cccc(NC(=O)CN(c2ccccc2F)S(=O)(=O)c2ccccc2)c1,3.17
17,Cc1ccc(NC2=NC(=O)C(CC(=O)Nc3ccc(C)cc3C)S2)cc1 (stereo not drawn),-14
18,O=C(O)c1c(CNCCc2ccccc2)c2ccccc2n1Cc1ccccc1,19.4
19,O=C1c2ccccc2-c2onc3ccc(Cl)c1c23,5.37
20,CCN1CCCC1CNC(=O)c1ccc(CS(=O)(=O)c2ccccc2C)o1 (stereo not drawn),-2.72
21,O=C(NC(c1ccccc1)c1ccccc1)c1cnc2ccccn2c1=O,-3.44
22,c1ccc(C2COC(c3cccs3)=N2)cc1 (stereo not drawn),2.9
23,CCCCn1cnc2sc(-c3ccccc3)cc2c1=O,1.86
24,CCC1(C)Cc2nc(N)c(C#N)cc2CO1 (stereo not drawn),-3.34
25,CN(C)CCN(Cc1ccccc1)Cc1ccc(F)cc1,-7.02
26,CCc1c(O)n(C2CCCCC2)c(=S)[nH]c1=O,-1.48

row,Structure (SMILES),% Inhibition @ 10 uM [%]
1,Cc1cc(O)c(C2=Nc3ccccc3SC(c3ccc([N+](=O)[O-])cc3)C2)c(=O)o1 (stereo not drawn),-0.415
2,N#Cc1ccccc1S(=O)(=O)N1CCC(c2nc(O)c3nnn(Cc4ccccc4)c3n2)CC1,0.401
3,COc1ccc(-c2[nH]nc3c2C(c2ccc(Cl)cc2Cl)C(C#N)=C(N)O3)cc1OC (stereo not drawn),19
4,Cc1ccc(C(=O)Nc2cc(Cl)ccc2C(=O)O)cc1C,7.82
5,Cc1ccc(C(=O)C2=C(O)C(=O)N(c3nc4ccccc4s3)C2c2ccc3c(c2)OCO3)cc1 (stereo not drawn),-6.69
6,CCc1c(O)nc2ccccc2c1O,4.35
7,O=C1CC(c2ccccc2)c2c(ccc3ccccc23)O1 (stereo not drawn),0.565
8,CCCCCC(=O)N(CN1C(=O)c2ccccc2C1=O)c1cccc(C(=O)O)c1,3.92
9,COc1ccc(CCNC(=O)C2CCC(CNS(=O)(=O)c3ccccc3)CC2)cc1OC (stereo not drawn),-4.53
10,Nc1c(-c2ccccc2)cnn1-c1ccc(C(=O)O)cc1,-5.38
11,Cc1c(/C=c2/sc3nc4ccccc4n3c2=O)c2ccccc2n1C,-8.57
12,CCN(CC)c1nc(-c2ccccc2)cc(-c2ccc(Br)cc2)n1,-0.856
13,CC(C)c1nc2sc3c(NCCO)ncnc3c2c2c1CCCC2,5.11
14,CC(C)(C)NC(=O)CSc1nnnn1-c1ccc(C(=O)O)cc1,3.25
15,Cn1c(C(=O)NCc2ccccc2Br)cc2occc21,1.52
16,COc1cc2ccccc2cc1C(=O)Nc1ccc(N2CCOCC2)cc1,-2.53
17,CCn1c(SCC(=O)NCCc2ccccc2)nc2c1c(=O)n(C)c(=O)n2C,-0.68
18,Cc1ccc(-n2ncc(C(=O)O)c2-n2cccc2)cc1,-0.0309
19,COc1ccc(N2C(=O)CC(N3CCN(c4ccccn4)CC3)C2=O)cc1 (stereo not drawn),2.24
20,Cc1nn(C(C)C(=O)NCC(C)c2ccccc2)c(=O)c2c1sc1ccccc12 (stereo not drawn),0.0811
21,CC1=NN(c2ccccc2)C(=O)/C1=C\c1cccc2ccccc12,-3.03
22,O=C(Nc1ccc(Cl)cc1Cl)c1ccccc1Cl,-1.62
23,CCCN1CCC(NCCc2cccc(Cl)c2)CC1,-6
24,COc1ccccc1CNCc1cc(OC)c(OC)cc1OC,-1.24
25,O=C(Nc1ccc2c(c1)C(=O)OC2)Nc1cccc2ccccc12,0.774
26,CC(c1ccccc1)n1cnc2c(cnn2-c2ccccc2)c1=O (stereo not drawn),-1.75

row,Structure (SMILES),% Inhibition @ 10 uM [%]
1,COc1ccc(C2CC(C(F)(F)F)n3ncc(C(=O)NCc4cn(C)nc4C)c3N2)cc1OC (stereo not drawn),-4.16
2,Cc1nc(N)nc2c1C(=O)CC(C)(C)C2,1.84
3,COC(=O)c1cc(-c2ccccc2Cl)no1,17.4
4,COc1ccc2oc(=O)c(-c3csc(N)n3)cc2c1,3.15
5,COc1ccc2c(CNCc3ccccc3C)c(C(=O)O)n(Cc3ccc(F)cc3)c2c1,-4.16
6,CN1C(=O)CC(C(=O)Nc2ccccc2F)S/C1=N\c1ccccc1 (stereo not drawn),0.385
7,Cc1ccc(C)c(Nc2nc(-c3ccc(Cl)cc3)c(C)s2)c1,6.4
8,COC(=O)CCCC[C@@H]1SC[C@@H](NC(=O)c2ccccc2)[C@@H]1O,0.162
9,Cc1ccc(NC(=O)CN2C(=O)N/C(=C/c3cc(C)n(-c4ccccc4C)c3C)C2=O)cc1,-2.99
10,CC(=O)Nc1ccc(NC(=O)c2ccc(-c3ccccc3)cc2)cc1,-1.29
11,CCn1c(C(=O)Nc2ccsc2C(=O)OC)cc2sc(Cl)cc21,-3.3
12,CC(C)CC(NC(=O)c1ccc(NC(=O)Nc2nc[nH]n2)cc1)C(=O)NCC#N (stereo not drawn),-3.97
13,Cc1ccc(C(C)C)c(OCC(O)CN2CCCCCC2)c1 (stereo not drawn),0.992
14,O=C(COc1ccc(Cl)cc1Cl)Nc1cc(Cl)c(Cl)cc1Cl,-0.856
15,COc1ccc(CN2CCN(c3ccccn3)CC2)cc1OC,-4.61
16,O=C(C(NS(=O)(=O)c1cccc2nsnc12)c1ccccc1)N1CCOCC1 (stereo not drawn),3.63
17,CCOC(=O)C1=C(CN2CCOCC2)NC(=O)NC1c1ccco1 (stereo not drawn),-2.83
18,CCOc1ccc(NC(=O)c2cc3ccccc3cc2O)cc1,-5.23
19,O=[N+]([O-])c1ccc(N2CCN(C3CC4CCC3C4)CC2)cc1 (stereo not drawn),-4.75
20,COc1cccc(-c2cn3cccc(N)c3n2)c1,2.27
21,O=C(Nc1ccc2ccccc2c1)c1nc2ccccc2s1,0.726
22,Cc1cc(C)n2nc(SCC(=O)Nc3cccc(Cl)c3)nc2n1,-1.44
23,O=S(=O)(NCc1ccncc1)c1cc(Cl)ccc1Cl,1.38
24,O=C(c1cnn(-c2ccccc2)c1-n1cccc1)N1CCC2(CC1)OCCO2,1.8
